# Paper PMC12820563, “FoxP3 forms a head-to-head dimer in vivo and stabilizes its multimerization on adjacent microsatellites”
# This is one part of the list.
# Target: T1, MBP-FoxP1dN (Mus musculus, UniProt P58462 326-579)
# T1 sequence: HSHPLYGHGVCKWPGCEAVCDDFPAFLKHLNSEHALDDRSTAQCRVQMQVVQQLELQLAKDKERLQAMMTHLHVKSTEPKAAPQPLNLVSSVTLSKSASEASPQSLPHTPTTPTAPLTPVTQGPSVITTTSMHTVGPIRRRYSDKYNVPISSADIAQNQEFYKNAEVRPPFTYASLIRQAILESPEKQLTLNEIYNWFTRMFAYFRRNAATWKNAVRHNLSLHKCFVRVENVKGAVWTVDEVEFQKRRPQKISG
# Assay: PD-seq (MBP pull-down with sequencing); 20 mM Tris-HCl pH 7.5, 100 mM NaCl, 1.5 mM MgCl2, 0.4 uM protein, 0.1 uM dsDNA library, 30 min, room temperature, amylose pull-down; high values mean tight binding
# Conditions: protein: recombinant; tags: His6-MBP; chain copies: 2; dsDNA, one strand shown
# Summary of the method: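 E. coli-expressed mouse FoxP3 or FoxP1 fragment, N-terminus removed and tagged with His6-MBP, was used at 0.4 µM against 0.1 µM of a Klenow-filled degenerate double-stranded DNA library. After 30 min at room temperature in Tris pH 7.5 buffer with NaCl and MgCl2, complexes were pulled down on amylose resin and washed three times. Binding is pull-down over input reads-per-million enrichment from pooled replicates of the proteinase K-released, PCR-barcoded, Illumina-sequenced DNA.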
row,Sequence,binding signal
1,GATGATTGTTCTCCCAGCTGATGAATTCGGGTATTCGAGTAAACAAATTTTCCTAATCTTTCTGTTCAAGCGCCATCTAC,0.937 RPM ratio (pull-down/input)
2,GATGATTGTTCTCCCAGCTGATGAATTTCACTTGTCGAGTAAACAAATTTTCCTAATCTTTCTGTTCAAGCGCCATCTAC,0.872 RPM ratio (pull-down/input)
3,GATGATTGTTCTCCCAGCTGATGAATTTTACCAATCGAGTAAACAAATTTTCCTAATCTTTCTGTTCAAGCGCCATCTAC,1.04 RPM ratio (pull-down/input)
4,GATGATTGTTCTCCCAGCTGATGAATTCCGATTCTCGAGTAAACAAATTTTCCTAATCTTTCTGTTCAAGCGCCATCTAC,0.803 RPM ratio (pull-down/input)
5,GATGATTGTTCTCCCAGCTGATGAATTCACTCCATCGAGTAAACAAATTTTCCTAATCTTTCTGTTCAAGCGCCATCTAC,0.919 RPM ratio (pull-down/input)
6,GATGATTGTTCTCCCAGCTGATGAATTGACTCGTTCGAGTAAACAAATTTTCCTAATCTTTCTGTTCAAGCGCCATCTAC,1 RPM ratio (pull-down/input)
7,GATGATTGTTCTCCCAGCTGATGAATTATTAGCCTCGAGTAAACAAATTTTCCTAATCTTTCTGTTCAAGCGCCATCTAC,1.06 RPM ratio (pull-down/input)
8,GATGATTGTTCTCCCAGCTGATGAATTCGAATCGTCGAGTAAACAAATTTTCCTAATCTTTCTGTTCAAGCGCCATCTAC,0.802 RPM ratio (pull-down/input)
9,GATGATTGTTCTCCCAGCTGATGAATTGGGTGTATCGAGTAAACAAATTTTCCTAATCTTTCTGTTCAAGCGCCATCTAC,1.17 RPM ratio (pull-down/input)
10,GATGATTGTTCTCCCAGCTGATGAATTGTGGGGATCGAGTAAACAAATTTTCCTAATCTTTCTGTTCAAGCGCCATCTAC,0.958 RPM ratio (pull-down/input)
11,GATGATTGTTCTCCCAGCTGATGAATTTGTGTGCTCGAGTAAACAAATTTTCCTAATCTTTCTGTTCAAGCGCCATCTAC,1.23 RPM ratio (pull-down/input)
12,GATGATTGTTCTCCCAGCTGATGAATTCCCTACCTCGAGTAAACAAATTTTCCTAATCTTTCTGTTCAAGCGCCATCTAC,0.836 RPM ratio (pull-down/input)
13,GATGATTGTTCTCCCAGCTGATGAATTTTTCCTATCGAGTAAACAAATTTTCCTAATCTTTCTGTTCAAGCGCCATCTAC,0.945 RPM ratio (pull-down/input)
14,GATGATTGTTCTCCCAGCTGATGAATTCAAGTCGTCGAGTAAACAAATTTTCCTAATCTTTCTGTTCAAGCGCCATCTAC,0.874 RPM ratio (pull-down/input)
15,GATGATTGTTCTCCCAGCTGATGAATTATGCAGGTCGAGTAAACAAATTTTCCTAATCTTTCTGTTCAAGCGCCATCTAC,0.96 RPM ratio (pull-down/input)
16,GATGATTGTTCTCCCAGCTGATGAATTATGGATTTCGAGTAAACAAATTTTCCTAATCTTTCTGTTCAAGCGCCATCTAC,0.915 RPM ratio (pull-down/input)
17,GATGATTGTTCTCCCAGCTGATGAATTTAACTGGTCGAGTAAACAAATTTTCCTAATCTTTCTGTTCAAGCGCCATCTAC,0.855 RPM ratio (pull-down/input)
18,GATGATTGTTCTCCCAGCTGATGAATTAAAAGTATCGAGTAAACAAATTTTCCTAATCTTTCTGTTCAAGCGCCATCTAC,1.13 RPM ratio (pull-down/input)
19,GATGATTGTTCTCCCAGCTGATGAATTTTATTGCTCGAGTAAACAAATTTTCCTAATCTTTCTGTTCAAGCGCCATCTAC,1.21 RPM ratio (pull-down/input)
20,GATGATTGTTCTCCCAGCTGATGAATTATCGAGCTCGAGTAAACAAATTTTCCTAATCTTTCTGTTCAAGCGCCATCTAC,0.907 RPM ratio (pull-down/input)
21,GATGATTGTTCTCCCAGCTGATGAATTCGACATATCGAGTAAACAAATTTTCCTAATCTTTCTGTTCAAGCGCCATCTAC,0.996 RPM ratio (pull-down/input)

row,Sequence,binding signal
1,GATGATTGTTCTCCCAGCTGATGAATTCCGTAGGTCGAGTAAACAAATTTTCCTAATCTTTCTGTTCAAGCGCCATCTAC,0.73 RPM ratio (pull-down/input)
2,GATGATTGTTCTCCCAGCTGATGAATTCGACTCGTCGAGTAAACAAATTTTCCTAATCTTTCTGTTCAAGCGCCATCTAC,0.816 RPM ratio (pull-down/input)
3,GATGATTGTTCTCCCAGCTGATGAATTTGGGAATTCGAGTAAACAAATTTTCCTAATCTTTCTGTTCAAGCGCCATCTAC,0.96 RPM ratio (pull-down/input)
4,GATGATTGTTCTCCCAGCTGATGAATTCGGCTTCTCGAGTAAACAAATTTTCCTAATCTTTCTGTTCAAGCGCCATCTAC,0.747 RPM ratio (pull-down/input)
5,GATGATTGTTCTCCCAGCTGATGAATTAGGATCTTCGAGTAAACAAATTTTCCTAATCTTTCTGTTCAAGCGCCATCTAC,0.888 RPM ratio (pull-down/input)
6,GATGATTGTTCTCCCAGCTGATGAATTCAAGAAGTCGAGTAAACAAATTTTCCTAATCTTTCTGTTCAAGCGCCATCTAC,0.844 RPM ratio (pull-down/input)
7,GATGATTGTTCTCCCAGCTGATGAATTAAGGGGATCGAGTAAACAAATTTTCCTAATCTTTCTGTTCAAGCGCCATCTAC,0.803 RPM ratio (pull-down/input)
8,GATGATTGTTCTCCCAGCTGATGAATTGTAAGGCTCGAGTAAACAAATTTTCCTAATCTTTCTGTTCAAGCGCCATCTAC,0.862 RPM ratio (pull-down/input)
9,GATGATTGTTCTCCCAGCTGATGAATTGGTGCCATCGAGTAAACAAATTTTCCTAATCTTTCTGTTCAAGCGCCATCTAC,0.972 RPM ratio (pull-down/input)
10,GATGATTGTTCTCCCAGCTGATGAATTACGGGACTCGAGTAAACAAATTTTCCTAATCTTTCTGTTCAAGCGCCATCTAC,0.921 RPM ratio (pull-down/input)
11,GATGATTGTTCTCCCAGCTGATGAATTGAGTAGATCGAGTAAACAAATTTTCCTAATCTTTCTGTTCAAGCGCCATCTAC,0.923 RPM ratio (pull-down/input)
12,GATGATTGTTCTCCCAGCTGATGAATTTGACACGTCGAGTAAACAAATTTTCCTAATCTTTCTGTTCAAGCGCCATCTAC,0.846 RPM ratio (pull-down/input)
13,GATGATTGTTCTCCCAGCTGATGAATTAAGACTTTCGAGTAAACAAATTTTCCTAATCTTTCTGTTCAAGCGCCATCTAC,0.891 RPM ratio (pull-down/input)
14,GATGATTGTTCTCCCAGCTGATGAATTATACCAATCGAGTAAACAAATTTTCCTAATCTTTCTGTTCAAGCGCCATCTAC,1.2 RPM ratio (pull-down/input)
15,GATGATTGTTCTCCCAGCTGATGAATTTTCGTAATCGAGTAAACAAATTTTCCTAATCTTTCTGTTCAAGCGCCATCTAC,1.46 RPM ratio (pull-down/input)
16,GATGATTGTTCTCCCAGCTGATGAATTACATAACTCGAGTAAACAAATTTTCCTAATCTTTCTGTTCAAGCGCCATCTAC,1.32 RPM ratio (pull-down/input)
17,GATGATTGTTCTCCCAGCTGATGAATTCGACAAATCGAGTAAACAAATTTTCCTAATCTTTCTGTTCAAGCGCCATCTAC,1.13 RPM ratio (pull-down/input)
18,GATGATTGTTCTCCCAGCTGATGAATTACGGGTATCGAGTAAACAAATTTTCCTAATCTTTCTGTTCAAGCGCCATCTAC,1.04 RPM ratio (pull-down/input)
19,GATGATTGTTCTCCCAGCTGATGAATTGTGTACATCGAGTAAACAAATTTTCCTAATCTTTCTGTTCAAGCGCCATCTAC,2 RPM ratio (pull-down/input)
20,GATGATTGTTCTCCCAGCTGATGAATTGGCCGCTTCGAGTAAACAAATTTTCCTAATCTTTCTGTTCAAGCGCCATCTAC,0.879 RPM ratio (pull-down/input)
21,GATGATTGTTCTCCCAGCTGATGAATTGCACATTTCGAGTAAACAAATTTTCCTAATCTTTCTGTTCAAGCGCCATCTAC,1.54 RPM ratio (pull-down/input)

row,Sequence,binding signal
1,GATGATTGTTCTCCCAGCTGATGAATTCTAGGCATCGAGTAAACAAATTTTCCTAATCTTTCTGTTCAAGCGCCATCTAC,1.05 RPM ratio (pull-down/input)
2,GATGATTGTTCTCCCAGCTGATGAATTTGACCAATCGAGTAAACAAATTTTCCTAATCTTTCTGTTCAAGCGCCATCTAC,0.987 RPM ratio (pull-down/input)
3,GATGATTGTTCTCCCAGCTGATGAATTGCCCCCTTCGAGTAAACAAATTTTCCTAATCTTTCTGTTCAAGCGCCATCTAC,0.904 RPM ratio (pull-down/input)
4,GATGATTGTTCTCCCAGCTGATGAATTAGGAACCTCGAGTAAACAAATTTTCCTAATCTTTCTGTTCAAGCGCCATCTAC,0.869 RPM ratio (pull-down/input)
5,GATGATTGTTCTCCCAGCTGATGAATTCTAAGGCTCGAGTAAACAAATTTTCCTAATCTTTCTGTTCAAGCGCCATCTAC,0.812 RPM ratio (pull-down/input)
6,GATGATTGTTCTCCCAGCTGATGAATTGATTCGTTCGAGTAAACAAATTTTCCTAATCTTTCTGTTCAAGCGCCATCTAC,1.04 RPM ratio (pull-down/input)
7,GATGATTGTTCTCCCAGCTGATGAATTGGCCGCATCGAGTAAACAAATTTTCCTAATCTTTCTGTTCAAGCGCCATCTAC,1.03 RPM ratio (pull-down/input)
8,GATGATTGTTCTCCCAGCTGATGAATTAAGAGGATCGAGTAAACAAATTTTCCTAATCTTTCTGTTCAAGCGCCATCTAC,0.917 RPM ratio (pull-down/input)
9,GATGATTGTTCTCCCAGCTGATGAATTTTTTAGATCGAGTAAACAAATTTTCCTAATCTTTCTGTTCAAGCGCCATCTAC,0.923 RPM ratio (pull-down/input)
10,GATGATTGTTCTCCCAGCTGATGAATTTTAGGCCTCGAGTAAACAAATTTTCCTAATCTTTCTGTTCAAGCGCCATCTAC,0.823 RPM ratio (pull-down/input)
11,GATGATTGTTCTCCCAGCTGATGAATTATGGCCATCGAGTAAACAAATTTTCCTAATCTTTCTGTTCAAGCGCCATCTAC,0.984 RPM ratio (pull-down/input)
12,GATGATTGTTCTCCCAGCTGATGAATTCCGTTCTTCGAGTAAACAAATTTTCCTAATCTTTCTGTTCAAGCGCCATCTAC,0.818 RPM ratio (pull-down/input)
13,GATGATTGTTCTCCCAGCTGATGAATTCGTCCACTCGAGTAAACAAATTTTCCTAATCTTTCTGTTCAAGCGCCATCTAC,0.852 RPM ratio (pull-down/input)
14,GATGATTGTTCTCCCAGCTGATGAATTTATCTGCTCGAGTAAACAAATTTTCCTAATCTTTCTGTTCAAGCGCCATCTAC,1.06 RPM ratio (pull-down/input)
15,GATGATTGTTCTCCCAGCTGATGAATTAGCCTGTTCGAGTAAACAAATTTTCCTAATCTTTCTGTTCAAGCGCCATCTAC,0.913 RPM ratio (pull-down/input)
16,GATGATTGTTCTCCCAGCTGATGAATTTTAGTGCTCGAGTAAACAAATTTTCCTAATCTTTCTGTTCAAGCGCCATCTAC,0.983 RPM ratio (pull-down/input)
17,GATGATTGTTCTCCCAGCTGATGAATTCATCTTATCGAGTAAACAAATTTTCCTAATCTTTCTGTTCAAGCGCCATCTAC,0.961 RPM ratio (pull-down/input)
18,GATGATTGTTCTCCCAGCTGATGAATTCCTCTAATCGAGTAAACAAATTTTCCTAATCTTTCTGTTCAAGCGCCATCTAC,0.999 RPM ratio (pull-down/input)
19,GATGATTGTTCTCCCAGCTGATGAATTCCCCGGCTCGAGTAAACAAATTTTCCTAATCTTTCTGTTCAAGCGCCATCTAC,0.696 RPM ratio (pull-down/input)
20,GATGATTGTTCTCCCAGCTGATGAATTGCAATAATCGAGTAAACAAATTTTCCTAATCTTTCTGTTCAAGCGCCATCTAC,1.71 RPM ratio (pull-down/input)
21,GATGATTGTTCTCCCAGCTGATGAATTCAGAGCATCGAGTAAACAAATTTTCCTAATCTTTCTGTTCAAGCGCCATCTAC,0.978 RPM ratio (pull-down/input)
